Test results reported in PubChem BioAssay AID493208 (National Center for Advancing Translational Sciences (NCATS), 2011).
The campaign covered roughly 44,000 compounds. About 340 (0.77%) were called active. About 5% were inconclusive and are not listed. Calls come from the whole dose curve; as a rule, active = well fitted inhibition curve with a large enough effect; inconclusive = small, poorly fitted or top-dose-only effect; inactive = flat fitted curve, though single readings scatter. This is one part of the list.

test: Acumen qHTS Assay for Inhibitors of the mTORC1 Signaling Pathway in MEF (Tsc2-/-, p53-/-) Cells: Sytravon; conditions: phospho-rpS6 immunofluorescence/PI, 24 h; series mostly up to 38.3 µM; activity change, negative = inhibition: at the top concentration;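 note: plate controls were DMSO for no effect and rapamycin for full effect; nearly all actives have a fitted effect of over 50% in size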
Procedure, shortened: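 Tsc2-/-, p53-/- mouse embryonic fibroblasts (empty-vector line) exposed to compound 24 hrs at 37 C, fixed, immunostained for phospho-rpS6 and counterstained with propidium iodide. Acumen laser scanning gives % positive cells from Alexa 488/PI ratio, thresholded using 7.5 nM rapamycin; PI count gives viability.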

Activity change, negative = inhibition, inactive:
COC(=O)C(NC(=O)CC(C)C)(Nc1nc2c(s1)CCCC2)C(F)(F)F (configuration not stated) -22.5%
CCCCOc1ccc(C(=O)NCCS(=O)(=O)N2CCN(c3ccc(F)cc3)CC2)cc1 4.87%
CCc1cnc2c(c1SCC(=O)N1CCCCC1)c(=O)n(C)c(=O)n2C -5.83%
CCC(=O)N1CCc2cc(Br)cc(S(=O)(=O)N3CCC(C(=O)Nc4ccc(OC)cc4)CC3)c21 -1.35%
COc1ccc(C(=O)NC2(C(F)(F)F)C(=O)NC(C)=C2C#N)cc1OC (configuration not stated) 0.356%
COc1ccc(-c2cc(C(=O)O)n(Cc3ccccc3)n2)cc1 -11.7%
O=C(CSc1nc2ccccc2nc1Cc1ccccc1)NCc1ccccc1Cl -15.2%
CCCCN(CC)CCCNC(=O)c1sc2nc(C)cc(C)c2c1-n1cccc1 -35.7%
CCc1ccc(NC(=O)c2ccc3c(O)c(S(=O)(=O)c4ccc(Cl)cc4)c(=O)[nH]c3c2)cc1 -2.95%
Cc1cccc(OC(C)C(=O)Nc2ncn[nH]2)c1 (configuration not stated) -2.13%
COc1ccc(CN(C(=O)COc2ccccc2OC)C2CCS(=O)(=O)C2)cc1 (configuration not stated) -3.75%
Cc1ccc(S(=O)(=O)N(CC(O)Cn2c3ccccc3c3ccccc32)c2cccc(C(N)=O)c2)cc1 (configuration not stated) -3.66%
Cc1ccc(C)c(NC(=O)CN2C(=O)CCc3ccccc32)c1 -26.1%
CCN(CC)c1cc(C)c2cc(NC(=O)c3cccc(OC)c3)ccc2n1 -21.5%
Cc1cccc2nc(-c3ccco3)c(Nc3ccc4c(c3)OCO4)n12 2.13%
CCOC(=O)C1CCCN(S(=O)(=O)c2ccc(F)c(C(=O)Nc3ccc(F)c(F)c3)c2)C1 (configuration not stated) -22%
Cc1ccccc1CNC(=O)c1cnc2sc(N3CCOCC3)nn2c1=O -8.3%
Cc1ccc(NC(=O)CN(C)S(=O)(=O)c2ccc3c(c2)n(C)c(=O)c(=O)n3C)cc1C -13.1%
Cc1ccc(-c2nc3c4ccccc4n(CC(=O)N4CCN(c5ccccc5F)CC4)c(=O)n3n2)cc1 0.115%
Cc1ccc(-n2nnnc2CNC(=O)C(C)(C)C)cc1C -12.7%
Cc1nc(SC(C)C(=O)Nc2ccccc2C)cc(-c2ccccc2)n1 (configuration not stated) -0.685%
COc1ccc(CNC(=O)c2cc(-c3ccc(OC)cc3)on2)cc1 4.54%
CCOc1ccc(CCNC(=O)Cn2nc(C)n3c(cc4occc43)c2=O)cc1OCC -6.32%
Cc1ccccc1C(=O)c1cccn1CC(=O)NCc1ccccc1 1.4%
CCn1c2ccccc2c2nnc(SCC(=O)O)nc21 -2.06%
Cc1ccc(C)c(OCCn2c(-c3ccc(Cl)cc3)nc3ccccc3c2=O)c1C 5.97%
COc1ccc(CNC(=O)CSc2nc(-c3ccc(OC)cc3)cc(C(F)(F)F)n2)cc1 -2.81%
CC(C)Oc1ccc(CNC(=O)c2cc3ccccn3n2)cc1 -9.65%
CC(=O)Nc1ccc(S(=O)(=O)N2CCC(n3c(C(F)(F)F)nc4cccnc43)CC2)cc1 -0.998%
COc1cccc(-c2cc(C(=O)Nc3cc(Cl)ccc3O)on2)c1 0%
Cc1ccccc1-n1c(SCc2ccc(Cl)cc2)nc2[nH]ncc2c1=O -2.19%
COc1cccc(N2CCN(C(=O)CCc3c(C)nc4c(c3C)c(=O)n(C)c(=O)n4C)CC2)c1 -6.86%
CCC(C)NC(=O)c1ccc2c(c1)N(Cc1ccccc1)C(=O)c1ccccc1S2 (configuration not stated) 8.33%
CCN(CC)c1cc2c(cc1F)c(=O)c(S(=O)(=O)c1ccc(OC)cc1)cn2CC -19.3%
CCOc1ccc(CNC(=O)C2CCCN(S(=O)(=O)c3ccc4c(ccn4C)c3)C2)cc1 (configuration not stated) 4.53%
COc1ccc(-c2nc(CN3CCC(C(=O)NCc4ccccc4)CC3)c(C)o2)cc1OC 0.702%
Cn1nnc2c(N3CCN(c4ccccc4Cl)CC3)ncnc21 -1.19%
COc1ccc(-c2c3c(=O)n(C)c(=O)n(C)c3c3c(C)nc4ccccc4n23)cc1 -5.39%
CC(C)(C)c1ccc(-c2nc(SCCCOc3ccccc3)n3[nH]c(=O)cc3n2)cc1 8.06%
CCOC(=O)Cn1c(=O)n(-c2ccccc2OC)c2nc(-c3cccc(F)c3)nc(C(N)=O)c21 0%
Cc1ccc(-c2nnc(SCc3cccc(C#N)c3)o2)cc1 -16.1%
CCOC(=O)c1ccccc1NC(=O)N(C(C)C)C1CCN(C(C)=O)CC1 2.13%
CCOC(=O)c1cccnc1SCC(=O)Nc1ccc(C)cc1C 1.3%
Cc1ccc2c(c1)-c1c(cnc3cc(-c4ccccc4)nn13)CO2 0.0574%
CN(C)CCNC(=O)c1ccc2c(=O)n3c(nc2c1)CCCCC3 -6.39%
O=C(NCCc1ccccc1)c1nnc(Cc2cccc(F)c2)o1 0%
COc1ccc(-c2nc(C)c(CCNS(=O)(=O)c3cc(C)c(C)cc3C)s2)cc1 -2.57%
O=C(CCS(=O)(=O)c1cccs1)Nc1ccc(C(=O)Nc2ccccc2F)cc1 -4.14%
CCSc1ncc(Cl)c(C(=O)Nc2ccc(S(=O)(=O)N3CCCCC3)cc2)n1 0.439%
CCCCN(CCCC)CCNC(=O)c1cn(CC)c2ccc(S(=O)(=O)N(C)C3CCCCC3)cc2c1=O -1.52%
COc1ccc(Cl)cc1NS(=O)(=O)c1ccc2c(c1)NC(=O)CC(=O)N2 -0.675%
CCOc1ccc(NC(=O)Cn2c(=O)n(-c3cccc(OC)c3)c(=O)c3c4c(sc32)CCCC4)cc1 -1.85%
Cc1ccc(C)c(Cn2cc(S(=O)(=O)c3ccc(Cl)cc3)c(=O)c3cc(F)ccc32)c1 -1.38%
CCc1ccc(NC(=O)c2ccc3[nH]c(C)c(C)c3c2)cc1 -19.3%
CCN(Cc1ccccc1)C(=O)CN(c1ccc(OC)cc1)S(=O)(=O)c1c(C)nn(C)c1C -13.1%
CCOC(=O)C1CCN(C(=O)Cn2c(=O)oc3cc(S(=O)(=O)N4CCC(C)CC4)ccc32)CC1 -17.3%
CC(=O)N1CCc2c(sc3c2c(=O)n(CCc2ccccc2)c(=O)n3Cc2ccc(Cl)cc2)C1 -6.53%
Cc1ccccc1NC(=O)CSc1nc2c(c(=O)n(C)c(=O)n2C)n1Cc1ccccc1F 2.34%
CCOCCCNc1ncnc2c1cnn2-c1ccc(C)c(C)c1 -6.25%
COCCNC(=O)Cn1c(=O)n(CCCCCC(=O)NCc2ccc3c(c2)OCO3)c(=O)c2sccc21 -2.75%
COc1ccc(-c2nc(CSc3nncn4c3cc3sccc34)c(C)o2)cc1OC 1.29%
O=C(CN1C(=O)CCc2cc(S(=O)(=O)N3CCOCC3)ccc21)NCc1ccccc1 1.76%
CCNc1nc(OC)nc(Oc2ccc(=O)[nH]n2)n1 7.38%
CCCNC(=O)c1ccc2nc(CCc3ccccc3)oc2c1 0.371%
Cc1cc(C)cc(S(=O)(=O)c2cn(C)c3cc(N4CCCC4)c(F)cc3c2=O)c1 -6.83%
CCc1ccc(NC(=O)CSC2=Nc3ccccc3C3=NC(CCC(=O)NCc4ccco4)C(=O)N23)cc1 (configuration not stated) -7.62%
CCc1ccccc1NC(=O)N(C)CCc1c(C)nn(C)c1C -21.7%
COc1ccc(C(=O)n2nc(-c3ccco3)nc2NCc2cccs2)cc1OC -3.21%
Cc1ccc(-c2nc3sc(CCNC(=O)c4ccc(C)c(C)c4)c(C)n3n2)cc1 5.73%
CC(=O)c1cccc(NC(=O)c2cc(-c3ccc(Cl)s3)nc3ccccc23)c1 -5.21%
COc1ccc(NC(=O)CC2C(=O)N(c3cccc(C)c3)C(=O)N2C2CCCCC2)cc1 (configuration not stated) 5.49%
COc1ccc(-c2nnc(SCC(=O)Nc3ccc(C(C)C)cc3)nc2-c2ccc(OC)c(OC)c2)cc1OC -3.8%
CC(C)c1ccc(S(=O)(=O)c2nnn3c2nc(N2CCCCC2)c2sccc23)cc1 0.377%
COc1cccc(C(=O)Nc2ccc(-c3cc(C(F)(F)F)nn3-c3ccccc3)cc2)c1 5.25%
Cc1ccc(C)c(CN2C(=O)N(c3cc(Cl)ccc3C)S(=O)(=O)c3ccccc32)c1 -0.638%
Cc1ccc(C)c(Cn2c(-c3cccs3)nc3ccccc32)c1 2.39%
CC(C)Cc1ccc(S(=O)(=O)Nc2cc3c(cc2N2CCOCC2)n(C)c(=O)c(=O)n3C)cc1 -14%
CCOc1ccccc1CNS(=O)(=O)c1ccc2[nH]c(=O)ccc2c1 0.995%
CN(Cc1ccccc1)S(=O)(=O)c1cc(Br)cc2c1N(C(=O)C1CC1)CC2 2.26%
CCC(C(=O)Nc1c(C)cc(C)cc1C)n1c(=O)c(-c2ccccc2NC(C)=O)nc2ccccc21 (configuration not stated) -0.473%
CCOC(=O)C1CCCN(C(=O)c2cc3c(=O)[nH]c4ccc(C)cc4c3s2)C1 (configuration not stated) -1.16%
COc1ccc(NC(=O)CSc2nnc(NC(=O)Nc3ccc(OC)cc3)s2)cc1 -7.05%
CCN(CCCNC(=O)CN1N=C(c2ccc(OC)cc2)CCC1=O)c1cccc(C)c1 1.6%
CCCCN(C)CCCNC(=O)c1cc(-c2ccc(Br)s2)nc2ccccc12 -21.7%
CCOc1ccc(CCNC(=O)CCCn2nc(C)c3sc4ccccc4c3c2=O)cc1 5.04%
COc1cccc(Nc2sc(C(=O)c3ccc(F)cc3)c(N)c2C(=O)NCc2ccc(Cl)cc2)c1 -5.57%
Cc1cccc(NC(=O)CCCCCn2c(=O)[nH]c3ccsc3c2=O)c1 -1.73%
Cc1cccc(N2CCN(C(=O)c3cn(CC(C)C)c(=O)c4c3c3ccccc3n4C)CC2)c1C 7.57%
COc1ccc(-c2ccc(NS(=O)(=O)c3ccc(C(C)=O)cc3)cc2)nn1 -17.1%
COc1cccc(N2CC(NC(=O)CCCc3ccccc3)CC2=O)c1 (configuration not stated) 0.323%
Cc1ccc(NS(=O)(=O)c2c(C)[nH]c(=O)[nH]c2=O)c(C)c1 -2.53%
Cc1ccc(-c2noc(CNC(=O)c3ccc(Br)o3)n2)cc1 -13.7%
CCOc1ccccc1CNC(=O)C1CCN(c2nn3cc(-c4ccc(F)cc4)nc3s2)CC1 3.08%
CCCCCCOc1ccc(C2C(=O)N(C3CCCCC3)CC(=O)N2CCC)cc1 (configuration not stated) 6.27%
Cc1ccccc1-c1nc2cc(NC(=O)Cc3ccc(Cl)cc3)ccc2o1 3.14%
Cc1cccc(N2CCN(C(=O)c3cccc(-n4c(C)nc5cccnc54)c3)CC2)c1C -16.2%
CC(C)c1ccc(CN(Cc2ccco2)c2cnc(S(C)(=O)=O)nc2C(=O)Nc2ccc(F)cc2)cc1 -2.27%
